Experimental findings from PMC9299179 are described below.

Substrate in this data set: CCCCCCCCCCCCO
In words: purified protein. The note with it: 100 mM Tris pH 8.5, 100 mM NaCl, 25 °C, co-substrate O2.

The term Km denotes the concentration of substrate that gives half-maximal velocity.

B1: long chain alcohol oxidase (LCAO), A0A075HNX4 (uncultured marine euryarchaeote) (protein)
chain: MAQGAQRKNFGHNQILRPSAAYTPVDEQEVLQILDRHRGQRIRAVGRLHSWSEAVTGDGVLLDLQRLNDVRLQSDGDQLVATVGAGCQIKRLLKELNREGATLHSLGLITAQTIAGAISTGTHGSGRNSMSHYVVGVRLACYDASTGQAIIEELSAGEPLQAARCSLGSLGIILAVRIRCREQYNVQEHFTESRRLLDVMDAEAPFPLQQFYLLPWRWSYFIQHRREDDRPRSRLARLYRLYWLGTMDYGLILQILFLERVARSRRLIRLAFRRIIPAFLIRNWRVTDRSSSMLVMRHDAFRHIEIELFVRRDQLADALGFTQEVIKIAGGRESALSADNQRRIEELGMQEALAGLHDQYCHHFPICVRRVLPDDTLISMASGAGEDWYALSFISYAKPARRAGFSLFASFMARSMSRLFHARPHWGKVCPLEADELTSLYPRFDAFRTVCNTLDPQGVFQNDWTTALLEADGQVGDFP
With B1, the Michaelis-Menten constant (Km) turned out to be 27.7 ± 3.8 µM.
